In PubChem BioAssay AID624171 (National Center for Advancing Translational Sciences (NCATS), 2012):
Hit rate of the full screen: of about 410,000 compounds, about 1,200 (0.29%) were called active. This list was built around the results that the source calls inconclusive (neither active nor inactive); the mix of calls is not that of the screen. The call rests on the fitted dose curve; in most records, active means well fitted activation curve with a large enough effect; inconclusive means small, poorly fitted or top-dose-only effect; inactive means flat fitted curve, though single readings scatter. Potencies beside an inconclusive call are fits to weak or partial responses and may not hold up.

Assay: qHTS of Nrf2 Activators; further: nearly all actives have a fitted effect of over 65% in size
Conditions: AREc32 ARE-luciferase reporter (MCF7-derived line), luminescence, 24 h; series mostly up to 46.1 µM
In short: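 Reporter line AREc32 (ARE-Fluc), seeded overnight in OPTI-MEM with 5% FBS; compound pin-transferred, 24 hr at 37 deg C, 5% CO2; luminescent read-out.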
Potency means the concentration at half of the fitted maximal effect; tags describe the fitted curve by direction and shape.

Compound	Potency
O=C(c1cnn(-c2ccccc2)c1)c1cc(F)ccc1O	inconclusive: 10 µM [activator, partial curve]
Cc1ccc(C(=O)/C=C/c2cc(Br)cc(Br)c2O)o1	inconclusive: 3.16 µM [activator, partial curve, poor fit]
NNc1nc2c(F)cccc2s1	inactive
COC(=O)c1cc2c(s1)-c1cc(F)ccc1OC2	inconclusive: 2.51 µM [activator, full curve, poor fit]
C=CCSC1=N/C(=C\C=C\c2ccco2)C(=O)S1	active: 12.6 µM
Fc1ccccc1/C=N/n1cc(-c2ccccc2)[nH]c1=S	inconclusive: 4.47 µM [activator, partial curve]
O=C(NC(=S)NC(=O)c1ccccc1F)c1ccccc1F	inconclusive: 12.6 µM [activator, partial curve, poor fit]
CSc1ccccc1NC(=O)c1cc(-c2cccs2)on1	inconclusive: 5.01 µM [activator, full curve, poor fit]
N#Cc1nc(-c2ccc(OCc3ccccc3)cc2)oc1N1CCOCC1	inactive
COc1cccc(C#CC2=CC(=O)C[C@H](c3ccc(F)cc3)C2)c1	active: 15.8 µM
O=C1ON=C(c2ccccc2)/C1=C\c1ccco1	inactive
Nc1ccc(Br)cc1-c1nc2ccccc2[nH]c1=O	inconclusive: 3.55 µM [activator, partial curve, poor fit]
COc1ccccc1C(=O)N/N=C(\C)CC(=O)Nc1ccc(Cl)cn1	inconclusive: 20 µM [activator, single point]
O=C(COc1ccc2oc(-c3ccccc3)cc(=O)c2c1)NCc1ccco1	inconclusive: 12.6 µM [activator, single point]
Cc1cccc(Sc2ccc([N+](=O)[O-])cc2[N+](=O)[O-])n1	inconclusive: 31.6 µM [activator, single point]
O=C1/C(=C/c2ccc(O)cc2)COc2ccccc21	inconclusive: 35.5 µM [activator, single point]
O=C(COC(=O)c1ccc2ncsc2c1)Nc1cc([N+](=O)[O-])ccc1Cl	inconclusive: 12.6 µM [activator, single point]
COc1cccc(Nc2c([N+](=O)[O-])cncc2[N+](=O)[O-])c1	inconclusive: 12.6 µM [activator, single point]
CCOC(=O)C1=C(C)N(c2ccccc2)C(=O)/C1=C\c1ccc(O)c(OC)c1	inconclusive: 20 µM [activator, single point]
COc1cc(C2C(C#N)=C(N)N(c3sc4c(c3C#N)CCCC4)C3=C2C(=O)CC(C)(C)C3)cc(OC)c1OC (stereo not given)	inactive
COc1ccc(C(=O)/C=C/c2ccccc2OC)c(OC(=O)c2ccc([N+](=O)[O-])cc2)c1	inconclusive: 22.4 µM [activator, single point]
O=C1C(=Cc2cccs2)Oc2ccccc21	active: 11.2 µM
Cc1cc2c(n1-c1ccc(C(=O)NCCc3ccccc3)cc1)CCC(C)C2 (stereo not given)	inconclusive: 15.8 µM [activator, single point]

Compound	Potency
CC(/C=N/NC(=O)CSc1nnc(SCc2ccccc2)s1)=C\c1ccco1	active: 11.2 µM
O=c1/c(=C/c2ccccn2)sc2nc3ccccc3n12	inconclusive: 20 µM [activator, partial curve, poor fit]
COCCNC(=O)C1(C)CCCN(CCC(=O)c2ccc(Br)cc2)C1 (stereo not given)	inconclusive: 15.8 µM [activator, single point]
C=C1C(=O)OC2CC1C(O)CC(C)=CCCC(C)=CC(O)CC2C (stereo not given)	inconclusive: 3.55 µM [activator, single point]
Cc1noc(C(=O)Nc2cccc(O)c2)c1Cl	inconclusive: 3.55 µM [activator, full curve]
COc1ccccc1CNC(=O)CCCn1c(=O)c2ccccc2n(Cc2ccccc2C#N)c1=O	inactive
Cc1cc2c(n1-c1ccc(C(=O)NCc3ccc(OC(C)C)cc3)cc1)CCCC2	inconclusive: 12.6 µM [activator, single point]
CC1=CC(=NOC(=O)c2cccc([N+](=O)[O-])c2)C=C(C)C1=O	inconclusive: 31.6 µM [activator, single point]
Cc1ccc2c(c1)-c1cc(C)nn1C(c1ccc3c(c1)OCO3)N2 (stereo not given)	inactive
CCCOc1ccc(C(=O)CCN2CCCCC2)cc1	inconclusive: 17.8 µM [activator, partial curve, poor fit]
COc1ccc(C(=O)CN2CCN(c3ccc(Cl)cc3)CC2)cc1OC	inactive
CCC(C)NC(=O)CSc1nc(-c2ccc(F)cc2)cc(C(F)(F)F)n1 (stereo not given)	inactive
CCOC(=O)CSc1nc2c(sc3cccc(F)c32)c(=O)n1Cc1ccc(OC)cc1	inactive
CS(=O)(=O)Cc1nc2ccccc2oc1=O	inconclusive: 10 µM [activator, partial curve]
CS/C(N)=N/N=C/c1c(O)ccc2ccccc12	inconclusive: 11.2 µM [activator, partial curve, poor fit]
O=C(CCl)NC(Cc1ccccc1)c1ccccc1 (stereo not given)	inconclusive: 17.8 µM [activator, single point]
CC(CNC(=O)Cc1ccc(NC(=O)N2CCSc3ncccc32)cc1)c1ccccc1 (stereo not given)	inactive
Cn1c(N)c(C(C[N+](=O)[O-])c2ccccc2Cl)c(=O)n(C)c1=O (stereo not given)	inconclusive: 31.6 µM [activator, single point]
Cc1onc(-c2c(F)cccc2Cl)c1C(=O)N1CCN(c2ncc(Br)cn2)CC1	inactive
COc1ccc(NC(=O)CSc2nnc(-c3cccs3)n2C)cc1OC	inconclusive: 35.5 µM [activator, single point]
Cc1nc(NC(=O)c2ccc(F)cc2)nc2cc3c(cc12)OCO3	inconclusive: 7.94 µM [activator, partial curve, poor fit]
O=C(c1nn2c(C(F)(F)F)cc(-c3ccco3)nc2c1Br)N1CCCc2ccccc21	inconclusive: 10 µM [activator, partial curve]
